Assay results taken from the supplement of paper PMC12217912.
The list shows a part of the results. Sequences were assembled here from the parent chain. Inactive controls read about 0.05.

B1: TEV protease; numbered along this chain (parent)
chain: MGESLFKGPRDYNPISSSICHLTNESDGHTTSLYGIGFGPFIITNKHLFRRNNGTLVVQSLHGVFKVKDTTTLQQHLVDGRDMIIIRMPKDFPPFPQKLKFREPQREERICLVTTNFQTKSMSSMVSDTSCTFPSGDGIFWKHWIQTKDGQCGSPLVSTRDGFIVGIHSASNFTNTNNYFTSVPKNFMELLTNQEAQQWVSGWRLNADSVLWGGHKVFMVKPEEPFQPVKEATQL

Variants of: B1
Assay: raw area under fraction-flipped curve 0-4 h after induction (AUC4h, not background-subtracted), DNA-recorder readout of cleavage of the substrate (dimensionless); higher = more cleavage of the substrate by the protease variant
Conditions: temperature: 34 °C; time window: 0-4 h after rhamnose induction
Protocol: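 In vivo DNA recorder in E. coli TOP10(DE3) ΔrhaA at 34 °C. Each TEVp single-site mutant (parent TEVp 0) is paired with a single-site variant of the 7-mer TEVs (canonical ENLYFQ|S). The substrate sits between flexible linkers in a Bxb1-sfGFP-TEVs-SsrA fusion, so cleavage stabilises Bxb1 and speeds flipping of a recombination array, read by NGS. The value is the raw area under the fraction-flipped curve over 0-4 h after rhamnose induction (AUC4h), with ≥20 reads per time point. It is not background-subtracted; inactive controls average about 0.047.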
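Further: Bxb1 expression induced with 0.2% (w/v) L-rhamnose at OD600 near 0.5, cultures sampled hourly, flipped fraction per protease–substrate barcode pair counted by paired-end Illumina sequencing.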

| Variant | area with substrate ENAYFQS | area with substrate ENCYFQS | area with substrate ENDYFQS | area with substrate ENEYFQS | area with substrate ENIYFQS | area with substrate ENQYFQS | area with substrate ENRYFQS | area with substrate ENSYFQS | area with substrate ENVYFQS | area with substrate ENHYFQS | area with substrate ENKYFQS | area with substrate ENNYFQS | area with substrate ENTYFQS | area with substrate ENFYFQS | area with substrate ENGYFQS | area with substrate ENMYFQS | area with substrate ENYYFQS | area with substrate ENPYFQS | area with substrate ENWYFQS |
| --- | --- | --- | --- | --- | --- | --- | --- | --- | --- | --- | --- | --- | --- | --- | --- | --- | --- | --- | --- |
| P228F | 0.0749 | 0.063 | 0.0623 | 0.0602 | 0.0765 | 0.074 | 0.0622 | 0.0689 | 0.0571 |  |  |  |  |  |  |  |  |  |  |
| P96R |  | 0.0749 |  |  | 0.138 | 0.0665 |  | 0.0544 |  | 0.0643 | 0.0663 | 0.0555 | 0.0814 |  |  |  |  |  |  |
| A232R | 0.0688 |  | 0.0554 | 0.0627 |  | 0.0606 | 0.0582 | 0.0569 | 0.0721 | 0.0609 | 0.0588 | 0.0485 | 0.0654 | 0.0608 | 0.0634 | 0.0703 | 0.0691 |  |  |
| A232Q | 0.0616 |  | 0.0675 | 0.0581 | 0.108 |  | 0.0676 | 0.0535 | 0.0828 | 0.0395 | 0.0555 | 0.0673 | 0 |  | 0.0558 | 0.0903 | 0.0595 | 0.0238 |  |
| A232Y | 0.0637 | 0.0759 | 0.0664 | 0.0673 | 0.0948 | 0.0589 | 0.0583 | 0.0659 | 0.0642 |  |  | 0.0608 | 0.0645 | 0.0596 | 0.069 |  |  |  |  |
| V210Y | 0.0614 | 0.0545 |  | 0.0633 | 0.136 | 0.0627 | 0.0544 | 0.0402 | 0.0185 | 0.0799 |  | 0.0677 | 0.0438 | 0.0669 | 0.0516 | 0.0686 | 0.0719 | 0.0535 |  |
| S209P | 0.0504 |  | 0.0451 |  | 0.0677 | 0.0582 | 0.0471 |  | 0.0546 | 0.0064 | 0.0501 |  | 0.0454 | 0.0588 |  |  | 0.0583 | 0.0678 |  |
| E223L | 0.061 |  | 0.061 | 0.0588 |  | 0.0565 | 0.0643 | 0.0575 | 0.07 | 0.0545 | 0.0643 | 0.0664 | 0.0671 | 0.0566 | 0.0703 |  |  | 0.061 |  |
| W212E | 0.058 | 0.0574 | 0.0691 | 0.0555 |  | 0.0652 | 0.0674 | 0.0786 | 0.0813 | 0.0489 |  | 0.0683 | 0.0676 | 0.0566 |  |  |  |  |  |
| W212V | 0.067 | 0.0312 | 0.07 | 0.0607 |  | 0.0609 | 0.0612 | 0.0654 | 0.0742 |  | 0.0615 | 0.0753 |  | 0.057 |  |  |  | 0.0723 | 0.0571 |
| N116C |  | 0.0583 | 0.0487 |  |  | 0.0613 | 0.0719 | 0.0462 | 0.0759 | 0.0582 |  | 0.0399 | 0.0621 | 0.058 | 0.0564 |  | 0.0504 |  |  |
| D79N |  | 0.0658 | 0.0578 | 0.0441 |  |  | 0.0555 | 0.0606 |  |  |  | 0.049 | 0.0802 |  | 0.0582 |  |  |  |  |
| F226D | 0.0572 |  | 0.0287 | 0.0636 | 0.112 | 0.0357 |  |  |  |  |  |  |  | 0.0602 | 0.0687 |  |  | 0.0417 |  |
| L5R |  | 0.0516 | 0.0463 |  |  |  |  | 0.0709 |  |  | 0.0331 |  |  | 0.0591 |  |  | 0.0623 | 0.0493 |  |
| L5M |  | 0.0627 | 0.0622 | 0.071 | 0.128 | 0.0615 | 0.0775 | 0.0546 | 0.0928 | 0.0465 | 0.0612 | 0.0746 | 0.0668 | 0.0572 | 0.0687 |  |  | 0.0696 |  |
| H215A | 0.0691 |  | 0.0618 |  |  | 0.0576 |  |  |  |  |  | 0.0696 | 0.0458 |  | 0.0502 |  | 0.0577 | 0.234 |  |
| L235H | 0.0537 |  | 0.0656 | 0.038 |  | 0.0624 |  | 0.064 |  |  |  | 0.0572 |  | 0.0678 |  |  |  |  | 0.0546 |
| L77K |  | 0.0624 |  | 0.0549 |  | 0.0661 |  | 0.0492 | 0.0597 |  |  |  | 0.0492 |  | 0.0684 | 0.0515 | 0.0858 |  | 0.0591 |
| L77P |  | 0.0559 | 0.0823 | 0.0592 | 0.0989 | 0.0655 | 0.0648 |  |  |  | 0.0638 |  | 0.0131 | 0.0582 |  | 0.0543 |  | 0.0737 |  |
| Q234G | 0.0428 | 0.0648 | 0.0717 | 0.0647 |  | 0.0596 |  | 0.0658 | 0.118 | 0.0622 | 0.0598 | 0.0594 | 0.0727 |  | 0.0665 |  |  |  | 0.086 |
| E231W | 0.0623 | 0.0636 | 0.0579 | 0.0742 | 0.103 | 0.0575 | 0.0634 | 0.0625 | 0.0645 | 0.0632 | 0.0486 | 0.0467 | 0.0673 | 0.0547 | 0.0663 | 0.0629 |  |  | 0.0471 |
| E224Q | 0.0561 | 0.0709 | 0.0601 | 0.071 | 0.11 | 0.058 | 0.0686 | 0.0571 | 0.0817 |  | 0.0629 | 0.0656 | 0.0701 |  | 0.0611 | 0.0687 |  | 0.0765 |  |
| E224D | 0.0586 | 0.0648 | 0.0543 | 0.0652 | 0.114 | 0.0609 | 0.0508 | 0.0643 | 0.102 | 0.0611 |  | 0.0489 | 0.0598 | 0.0541 | 0.0576 |  |  |  |  |
| D208R | 0.0687 | 0.0553 | 0.0465 | 0.0642 |  | 0.0821 | 0.0527 | 0.0602 |  | 0.0544 | 0.0691 | 0.0525 |  | 0.0475 | 0.0593 | 0.0592 |  |  |  |
| D208W | 0.0504 | 0.0655 | 0.062 | 0.0587 | 0.12 | 0.061 |  | 0.0561 | 0.0638 | 0.0492 | 0.0529 |  | 0.0424 | 0.0525 | 0.0602 |  | 0.0635 |  | 0.0932 |
| D208I | 0.074 | 0.0655 | 0.0493 | 0.0581 | 0.083 | 0.0506 | 0.0606 | 0.0531 | 0.0654 | 0.0584 | 0.0701 | 0.0666 | 0.0586 |  | 0.0608 |  | 0.0629 | 0.0525 | 0.0613 |
| D208T | 0.0705 | 0.0665 | 0.0676 | 0.0652 |  | 0.0527 | 0.0522 | 0.0528 |  |  | 0.0578 | 0.0538 | 0.0538 |  | 0.0596 |  | 0.0552 |  |  |
| D208M | 0.0655 |  | 0.0605 | 0.0393 |  | 0.0565 |  | 0.0647 | 0.0641 | 0.0696 |  | 0.0674 | 0.0613 |  | 0.0614 | 0.0683 | 0.0561 | 0.0764 |  |
